# From PubChem BioAssay AID1466 (National Center for Advancing Translational Sciences (NCATS), 2008)
# Screen size: about 200,000 compounds; about 10 (0.005%) were called active. The inconclusive results got no clear call from the source; some entries with a clear call stand among them for comparison. Calls come from the whole dose curve; as a rule, active = well fitted inhibition curve with a large enough effect; inconclusive = small, poorly fitted or top-dose-only effect, or effect the other way, or another doubt; inactive = no such curve, though single readings can be large or run the other way. Potencies of inconclusive entries are left out as doubtful fits.
# Target: Lysosomal alpha-glucosidase (Homo sapiens) (UniProt P10253)
# Experiment: qHTS Assay for Inhibitors of Human alpha-Glucosidase as a Potential Chaperone Treatment of Pompe Disease;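 for activity change, negative = inhibition: plate controls were uninhibited enzyme wells for no effect and no-enzyme background for full effect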
# Details: purified human GAA, 4-MU-alpha-glucoside fluorescence; activity change, negative = inhibition: at 76.9 µM (top of the series) unless noted
# Method in brief: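 Read-out is 4-methylumbelliferone fluorescence (Ex 365/Em 440 nm) after NaOH/glycine stop at pH 10. Enzyme 4 nM, substrate 400 uM, pH 5.0 citrate buffer, 20 min room temperature; AC50 from Hill-equation concentration-response.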
# Potency is the fitted concentration of half-maximal effect; tags give direction and shape of the fitted curve.
Compound,Potency,"activity change, negative = inhibition"
O=c1[nH]c2ccccc2nc1C(F)(F)C(F)F,"inconclusive [activator, partial curve]",
Cc1cnc(C(=O)N2CCCC(C(=O)c3ccc(C(F)(F)F)cc3)C2)cn1 (stereo unspecified),,inconclusive: 16.3% [activator]
N#Cc1cc2ccccc2nc1N,"inconclusive [activator, partial curve]",
Cc1ncc([N+](=O)[O-])n1Cc1ccc(Cl)cc1,"inconclusive [inhibitor, partial curve, poor fit]",
CCN(Cc1cnn(C)c1)C(=O)c1ccc(OC2CCN(S(=O)(=O)N(C)C)CC2)cc1,,inconclusive: 15.9% [activator]
CCN(c1ccccc1)S(=O)(=O)c1ccc(N)cc1,,inconclusive: -15.2% [inhibitor]
Cc1ccc(S(=O)(=O)N(C)c2ccc(OCC(=O)Nc3nc4ccccc4s3)cc2)cc1,,inconclusive: -17% [inhibitor]
O=C1CC(c2ccco2)Cc2c1cnn2-c1nc2ccccc2s1 (stereo unspecified),"inconclusive [inhibitor, single point]",
O=S(=O)(Nc1nc2ccccc2nc1N1CCc2ccccc2C1)c1ccc(Br)cc1,"inconclusive [activator, single point]",
CCOC(=O)c1[nH]c2ccc(F)cc2c1NC(=O)C(C)N1CCc2cc(OC)c(OC)cc2C1 (stereo unspecified),"inconclusive [inhibitor, full curve, poor fit]",
CC1=NN(C(=O)c2ccc(Cn3nc(C)c([N+](=O)[O-])c3C)cc2)C(O)(C(F)(F)F)C1 (stereo unspecified),"inconclusive [inhibitor, partial curve]",
CC1=NC(=O)C(N=Nc2ccccc2)N1c1ccccc1 (stereo unspecified),"inconclusive [inhibitor, single point]",
Cn1nnnc1SCc1cc(=O)n2ccsc2n1,,inconclusive: -15.6% [inhibitor]
COc1cccc2c(SCC(=O)N/N=C/c3ccc(O)c(O)c3)cc(C)nc12,,inactive: -8.93%
Cc1c(Nc2nc(-c3ccc(Cl)cc3)cs2)c(=O)n(-c2ccccc2)n1C,"inconclusive [inhibitor, single point]",
Cc1ccc(/C=[N+](\[O-])c2ccc(N(C)C)cc2)c2nsnc12,,inconclusive: -16.3% [inhibitor]
COc1cc(/C=C(\C#N)C(=O)N2CCc3ccccc32)ccc1O,"inconclusive [inhibitor, single point]",
O=C(CSc1ncccn1)N1CCCc2ccccc21,"inconclusive [inhibitor, single point]",
N#C/C(=C\c1cn[nH]c1-c1ccccc1)C(=O)NC1CCCCCC1,"inconclusive [inhibitor, partial curve]",
COc1ccc(N2CCN(C(=O)c3ccc4nc(N5CCCCC5)sc4c3)CC2)cc1,"inconclusive [inhibitor, single point]",
COC(=O)c1sccc1NC(=O)CSc1cc(Cl)ccc1Cl,"inconclusive [inhibitor, single point]",

Compound,Potency,"activity change, negative = inhibition"
O=C(OCCN(C1=NS(=O)(=O)c2ccccc21)c1ccccc1Cl)c1ccc(Cl)cc1,"inconclusive [inhibitor, partial curve]",
O=C(CCCN1C(=O)c2cccc3cccc(c23)C1=O)NCc1ccco1,,inconclusive: 19% [activator]
CC(C)C(=O)Nc1ccc(-c2nc3ccccc3c(=O)o2)cc1,"inconclusive [inhibitor, single point]",
Cc1cc2cc3c(=O)[nH]c(=O)[nH]c3nc2cc1C,"inconclusive [activator, single point]",
CC(C)Oc1ccc(N2CC(C(=O)NC3=NCCS3)CC2=O)cc1 (stereo unspecified),,inconclusive: 15.1% [activator]
CCOCCCNS(=O)(=O)c1ccc2c(c1)CCN2C(C)=O,"inconclusive [inhibitor, partial curve]",
c1ccc2c(c1)NC1(CCCCCC1)n1c-2nc2ccccc21,"inconclusive [activator, partial curve]",
COc1cc(C)c(C)cc1S(=O)(=O)N1CCN(Cc2ccc3c(c2)OCO3)CC1,"inconclusive [inhibitor, partial curve, poor fit]",
COc1cccc(C(c2nnnn2Cc2ccco2)N2CCN(c3cccc(C)c3C)CC2)c1OC (stereo unspecified),"inconclusive [inhibitor, single point]",
O=C1CCc2ccc(OCCCCN3CCN(c4cccc(Cl)c4Cl)CC3)cc2N1,"inconclusive [inhibitor, full curve, poor fit]",
O=C(CSc1ccc(-c2cccnc2)nn1)c1ccc([N+](=O)[O-])cc1,"inconclusive [inhibitor, single point]",
Cc1ccc(NC(NC(=O)Cc2ccccc2)C(Cl)(Cl)Cl)cc1 (stereo unspecified),"inconclusive [inhibitor, single point]",
CCCCn1nnc(NC(=O)CC23CC4CC(CC(C4)C2)C3)n1,"inconclusive [inhibitor, full curve]",
Cc1cc(=O)oc2cc(OCC#N)ccc12,"inconclusive [activator, partial curve]",
OC(CN1CCN(Cc2ccccc2)CC1)Cn1c2ccccc2c2ccccc21 (stereo unspecified),"inconclusive [inhibitor, partial curve]",
Cc1ccc(-c2c(C#N)c(N)n(-c3ccc(C)cc3)c(=O)c2C#N)cc1,"inconclusive [activator, single point]",
C=C(C)Cn1c(-c2cccs2)n[nH]c1=S,,inconclusive: 20.3% [activator]
O=C(NCC1CCCO1)c1cccnc1NCc1ccc(F)cc1 (stereo unspecified),"inconclusive [activator, single point]",
Nn1c(Cc2ccccc2F)nnc1SCCOc1ccc(Cl)cc1,"inconclusive [inhibitor, single point]",
CCN(CC(=O)Nc1ccc2c(c1)OCCO2)Cc1cc(=O)n2ccsc2n1,,inconclusive: 13.6% [activator]
